# Measurements reported in PubChem BioAssay AID2451 (National Center for Advancing Translational Sciences (NCATS), 2010).
# Among all 290,000 compounds or so, about 2,100 (0.72%) were called active. Inconclusive means that the source gave no clear call. Such entries were picked first, then a sample of the others. Calls come from the whole dose curve; as a rule, active = well fitted inhibition curve with a large enough effect; inconclusive = small, poorly fitted or top-dose-only effect, or effect the other way; inactive = flat fitted curve, though single readings scatter. Potencies of inconclusive entries are doubtful fits and often do not repeat.
# Molecular target: Fructose-bisphosphate aldolase (Giardia intestinalis (strain ATCC 50803 / WB clone C6)) (UniProt A8B2U2)
# UniProt A8B2U2, sequence (A8B2U2 whole entry, looked up): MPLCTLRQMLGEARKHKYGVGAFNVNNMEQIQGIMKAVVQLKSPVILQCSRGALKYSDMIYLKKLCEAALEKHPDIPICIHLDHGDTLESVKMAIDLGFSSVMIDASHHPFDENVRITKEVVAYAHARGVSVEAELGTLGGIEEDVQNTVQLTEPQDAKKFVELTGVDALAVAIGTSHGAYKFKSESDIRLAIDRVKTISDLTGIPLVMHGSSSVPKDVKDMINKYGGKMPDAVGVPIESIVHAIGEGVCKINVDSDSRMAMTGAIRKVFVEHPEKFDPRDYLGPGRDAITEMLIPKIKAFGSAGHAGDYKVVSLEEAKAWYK
# Experiment: qHTS Assay for Inhibitors of Fructose-1,6-bisphosphate Aldolase from Giardia Lamblia; note: nearly all actives have a fitted effect of over 55% in size
# Details: purified Giardia FBPA; series mostly up to 59.6 µM
# How it was run: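 Giardia FBPA (40 nM reagent) was preincubated 10 min at RT with compound (up to 57.5 uM final), then substrate plus GAPDH/TPI/NAD/arsenate coupling system with diaphorase/resazurin was added; resorufin fluorescence (525/598 nm) was read after 20 min.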
# Potency is the fitted concentration of half-maximal effect; tags give direction and shape of the fitted curve.
row,Compound,Potency
1,CCc1nnc(NS(=O)(=O)c2ccccc2)s1,"inconclusive: 35.5 µM [inhibitor, single point]"
2,COc1ccccc1OCCCCN1CCCCC1,"inconclusive: 22.4 µM [inhibitor, partial curve]"
3,Cc1ccc(C)n1Cc1ccc(C(=O)O)cc1,"inconclusive: 15.8 µM [inhibitor, single point]"
4,CCn1c(SCC(=O)Nc2ccc(Cl)cc2)nc2nc3c(cc2c1=O)CCCC3,inactive
5,Cc1ccc2c(c1)C(C)CC(C)(C)N2C(=O)CN1CCN(C)CC1 (stereo not given),"inconclusive: 11.2 µM [inhibitor, partial curve]"
6,CN(C)c1cncc(C(=O)O)c1,"inconclusive: 19.9 µM [inhibitor, single point]"
7,CC(C)(C)C1=C(C#N)C(c2ccc3c(c2)OCO3)C(C#N)=C(N)O1 (stereo not given),"inconclusive: 17.7 µM [inhibitor, partial curve]"
8,Cc1ccc(C)c(-n2c(SCC(N)=O)nnc2-c2ccccn2)c1,"inconclusive: 3.98 µM [activator, single point]"
9,CCCCCOc1ccc(NC2=CC(=O)CCC2)cc1,inactive
10,Nc1nc2c([nH]c(=S)n2C2OC(CO)C(O)C2O)c(=O)[nH]1 (stereo not given),"inconclusive: 17.7 µM [inhibitor, single point]"
11,Cc1noc(NS(=O)(=O)c2ccc(NC(=O)CSc3n[nH]c(-c4ccccc4)n3)cc2)c1C,"inconclusive: 17.7 µM [activator, partial curve]"
12,Cc1ccc(Nc2c([N+](=O)[O-])ccc3c2=NC2(CCCCC2)N=3)cc1,"inconclusive: 14.1 µM [inhibitor, partial curve]"
13,COc1ccc(C2C(C#N)=C(N)N(c3ncn[nH]3)C3=C2C(=O)CCC3)cc1 (stereo not given),"inconclusive: 15.8 µM [inhibitor, partial curve]"
14,C=CCn1c(-c2sccc2C)n[nH]c1=S,"inconclusive: 2.23 µM [inhibitor, full curve, poor fit]"
15,O=[N+]([O-])c1cc(CN2CCCC2)c2cccnc2c1O,active: 17.7 µM
16,CCOC(=O)C(Cc1ccc(N)cc1)N1C(=O)c2ccccc2C1=O (stereo not given),"inconclusive: 35.5 µM [inhibitor, single point]"
17,Cc1noc(NS(=O)(=O)c2ccc(N3C(=O)c4ccccc4C3=O)cc2)c1C,"inconclusive: 15.8 µM [activator, single point]"
18,C=CCNC(=O)CN1CCN(C(c2ccccc2)c2ccccc2)CC1,"inconclusive: 31.6 µM [inhibitor, partial curve]"
19,COc1ccc(CN2CCN(Cc3ccco3)CC2)cc1OC,active: 12.6 µM
20,c1ccc(-c2cnnc(N3CCOCC3)n2)cc1,inactive
21,O=C(COC(=O)c1cc([N+](=O)[O-])ccc1NCc1ccccc1)NC1CCCc2ccccc21 (stereo not given),inactive
22,COC(=O)C(=C/C(C)=C/c1cccs1)C(=O)OC,inactive
23,Cc1ccc(-n2c(CC#N)n[nH]c2=S)c(C)c1,"inconclusive: 19.9 µM [inhibitor, partial curve]"
24,CCOC(=O)CSc1nnc(NC(=O)c2cccc(S(=O)(=O)N3CCCCC3)c2)s1,inactive

row,Compound,Potency
1,O=C1CS/C(=N/N=C\c2ccn[nH]2)N1,active: 17.7 µM
2,CSc1ccc(C2NC(=O)c3c(sc4c3CCN(C)C4)N2)cc1 (stereo not given),"inconclusive: 12.6 µM [inhibitor, partial curve]"
3,CN(CC1CCCO1)S(=O)(=O)c1ccc(C(=O)Nc2ccc3c(c2)OCO3)cc1 (stereo not given),inactive
4,O=C(O)CNC(=O)CC1S/C(=N/N=C2\CSC(=O)N2)NC1=O (stereo not given),active: 5.61 µM
5,[O-][n+]1onc2c1CCc1c-2nn(-c2ccccc2Cl)[n+]1[O-],inactive
6,CN(CC(=O)NCc1cccnc1)S(=O)(=O)c1ccccc1,inactive
7,N#CCC(=O)Nc1nc(-c2ccc3c(c2)OCCO3)cs1,inactive
8,COC(=O)C1=C(C)NC(C)=C(C(=O)OCCNCc2ccccc2)C1c1cccc([N+](=O)[O-])c1 (stereo not given),inactive
9,O=C(O)c1ccc2c(c1)C(=O)N(c1ccc(OCc3ccccc3)cc1)C2=O,"inconclusive: 39.8 µM [activator, single point]"
10,CCOc1ccc(N2C(=O)CC(Sc3ncccn3)C2=O)cc1 (stereo not given),inactive
11,CNc1nc(N2CCc3ccccc32)ncc1F,"inconclusive: 17.7 µM [inhibitor, partial curve]"
12,O=C(CN1C(=O)c2ccccc2S1(=O)=O)NCc1ccccn1,"inconclusive: 0.398 µM [activator, partial curve]"
13,COc1ccc(OC)c(-c2csc(NC(=O)c3ccc(F)cc3)n2)c1,active: 22.4 µM
14,CCN(CC)CCSc1nc2ccccc2n1Cc1ccccc1,"inconclusive: 28.2 µM [inhibitor, partial curve]"
15,Clc1cccc(CN2CCc3c([nH]c4ccccc34)C2)c1Cl,"inconclusive: 25.1 µM [inhibitor, single point]"
16,Cc1ccc(NC(=O)CSc2nc3ccccc3c(=O)n2CCCN2CCCCC2)cc1C,inactive
17,O=C1c2ccccc2C(=O)N1CCc1csc(-c2cccc(F)c2)n1,"inconclusive: 17.7 µM [inhibitor, single point]"
18,COc1ccc(-n2nc3c(c2NC(=O)c2c(-c4ccccc4Cl)noc2C)CS(=O)(=O)C3)cc1,"inconclusive: 17.8 µM [activator, partial curve]"
19,CSc1ccc(CN2CCC(N3CC(C)OC(C)C3)CC2)cc1 (stereo not given),"inconclusive: 17.8 µM [inhibitor, partial curve]"
20,CCOC(=O)C1=C2c3ccc4ccccc4c3CC(C)(C)N2C(=O)C1=O,"inconclusive: 17.7 µM [inhibitor, partial curve]"
21,CC(=O)NC1C(=O)N(CCN2CCOCC2)c2ccc(F)cc21 (stereo not given),"inconclusive: 25.1 µM [activator, single point]"
22,Cc1ccc(-n2c(=O)c3cc4c(=O)n(-c5ccc(C)c(C)c5)c(=O)c4c(C(=O)c4ccc(C(=O)O)cc4)c3c2=O)cc1C,"inconclusive: 31.5 µM [inhibitor, single point]"
23,CCc1nn(C)c(-c2n[nH]c(=S)n2N)c1Cl,"inconclusive: 9.98 µM [inhibitor, partial curve]"
24,O=[N+]([O-])c1ccc(N/N=C/c2c[nH]c3ccccc23)c(S(=O)(=O)Nc2ccc(Cl)cc2)c1,inactive

row,Compound,Potency
1,Cn1c(=O)c(C(=O)Nc2ncccc2O)c(O)c2ccccc21,active: 8.89 µM
2,C=CCn1c(O)c(C(CC)=Nc2ccc(N(CC)CC)cc2)c(=O)[nH]c1=O,"inconclusive: 1.77 µM [inhibitor, full curve]"
3,O=C(O)c1cncc(C#CCC2CCCCC2)c1,"inconclusive: 17.7 µM [activator, partial curve]"
4,O=C(O)c1ccc(N=Cc2c(O)ccc3ccccc23)cc1,"inconclusive: 28.2 µM [inhibitor, partial curve]"
5,CCn1ncc(Cl)c1C(=O)NC(=S)Nc1c(C)cc(C)cc1[N+](=O)[O-],"inconclusive: 7.92 µM [inhibitor, partial curve]"
6,C/C(CC(=O)Nc1cc(Cl)ccc1Cl)=N\NC(N)=S,"inconclusive: 6.29 µM [inhibitor, partial curve]"
7,CC(=O)c1cc2c(cc1NC(=O)CN1CCCCCCC1)OCO2,"inconclusive: 7.08 µM [inhibitor, partial curve]"
8,CC(=O)CCc1ccc(OCCCCN2CCC(Cc3ccccc3)CC2)cc1,"inconclusive: 19.9 µM [inhibitor, partial curve]"
9,Cn1c(C(=O)Nc2ccc3c(c2)OCCO3)cc2sccc21,"inconclusive: 17.7 µM [inhibitor, single point]"
10,CC(=O)Oc1ccc(C(=O)[C@H]2[C@H]3C(=O)N(c4ccccc4)C(=O)[C@H]3[C@@H]3C=CC=NN32)cc1,"inconclusive: 8.89 µM [inhibitor, partial curve]"
11,O=c1[nH]c2cc3c(cc2cc1CN(Cc1cccs1)Cc1nnnn1Cc1ccco1)OCCO3,"inconclusive: 17.7 µM [inhibitor, partial curve]"
12,CCCCN(CC)CCNC(=O)Cn1cc2c(n1)-c1c(oc(C(=O)N3CCCC3)c1C)CC2,"inconclusive: 25.1 µM [inhibitor, partial curve]"
13,COc1ccccc1N1C(=O)C2CC(C)=C(C)CC2C1=O (stereo not given),inactive
14,O=c1[nH]c(-c2ccncc2)nc2ccccc12,inactive
15,O=C1NC(c2cccc(Br)c2)=N/C1=C\c1ccco1,"inconclusive: 15.8 µM [inhibitor, single point]"
16,O=C1N=NC(=O)N1c1ccccc1,"inconclusive: 17.8 µM [inhibitor, partial curve]"
17,CN1C2C=C3C(C#N)=C(N)C(C#N)(C#N)[C@@H](c4ccsc4)[C@@H]3C1CC2 (stereo not given in full),"inconclusive: 15.8 µM [inhibitor, single point]"
18,Cc1ccc2c(c1)N=C(c1ccccc1)CC(C(Cl)Cl)=N2,"inconclusive: 15.8 µM [inhibitor, partial curve]"
19,COc1ccc(CCC(C)Nc2cccc(F)c2)cc1 (stereo not given),"inconclusive: 44.6 µM [inhibitor, single point]"
20,C#CCOCCOCCOCCNc1nc(N2CCN(C(=O)[C@H]([C@@H](C)CC)n3cc([C@@H](N)Cc4ccc(O)cc4)nn3)CC2)nc(N2CCN(C(=O)[C@H](CCCCN)n3cc([C@@H](N)CC(C)C)nn3)CC2)n1,inactive
21,COc1ccc(NC(=O)CSc2ncccc2C(=O)OC(C)C)cc1OC,"inconclusive: 31.5 µM [inhibitor, single point]"
22,CCOC(=O)c1[nH]nc2c1C(=O)N(CC)C2=O,"inconclusive: 14.1 µM [inhibitor, partial curve]"
